Laboratory results taken from ChEMBL document CHEMBL4888484, “Replenishing the malaria drug discovery pipeline: Screening and hit evaluation of the MMV Hit Generation Library 1 (HGL1) against asexual blood stage Plasmodium falciparum ,using a nano luciferase reporter read-out” (2022).
About 540 (0.36%) of roughly 150,000 compounds showed an effect of 50% or more. Some of the results follow.

test system: Plasmodium falciparum; experiment: Primary screen in NF54 nanoGlo assay, in single point, at 2uM, 72h; a lower Z score goes with more inhibition; assay type: functional, Erythrocyte; settings: timepoint 72 hour

Row | SMILES | % Inhibition | Z score
1 | CCN(CC)CCN[C@H]1CCCc2cccnc21 | -4% | 0.35
2 | COc1cc(OC)cc(C(=O)N2CC[C@H](Oc3ccc(C)nn3)C2)c1 | -15% | 1.69
3 | CC1CCN(c2nc3c(c(Oc4ccccc4F)n2)CN(Cc2ccc4c(c2)OCO4)CC3)CC1 | -11% | 1.09
4 | CC1CN(C(=O)NCC(C)N(C)Cc2ccccc2)CCO1 (stereo unspecified) | -10% | 1.14
5 | CCOc1ccccc1-n1nnn(S(C)(=O)=O)c1=O | -44% | 5.1
6 | CC(C)OCCCNC(=O)C(C#N)C(=O)CC(C)c1ccccc1F (stereo unspecified) | -10% | 1.36
7 | O=C1C2ON(c3ccccc3)C(c3ccc(-c4ccc(Cl)c(Cl)c4)o3)C2C(=O)N1c1ccc(Cl)cc1 (stereo unspecified) | -4% | 0.43
8 | CN1CCN(C(=O)c2cnccc2NC(=O)C(C)(C)C)C[C@@]12CCOC2 | -5% | 0.87
9 | CCOc1cc(N2C(=O)CC3CS(=O)(=O)CC32)c(OCC)cc1NC(=O)c1ccccc1 (stereo unspecified) | -9% | 1.71
10 | Cc1nonc1CC(=O)N1CCCC[C@@H]1CCn1ccnn1 | -2% | 0.38
11 | O[C@H]1Cc2ccccc2[C@H]1n1cc(-c2nccs2)nn1 | -9% | 1.06
12 | COC(=O)CC[C@@H]1NC(=O)[C@@H](Cc2ccccc2)NC1=O | -5% | 0.91
13 | Cc1ccc(CC(=O)N2CCC(c3ncc(C(=O)O)s3)CC2)s1 | 5% | -0.91
14 | N#Cc1cc(S(=O)(=O)NCCN(C2CC2)S(=O)(=O)c2ccc(Cl)c(C#N)c2)ccc1Cl | 47% | -9.35
15 | CN(Cc1ccco1)C(=O)c1cccc2cn[nH]c12 | -6% | 0.87
16 | N#Cc1c(N)nsc1N1CCCCC1 | -12% | 1.7
17 | COc1ccc(-c2n[nH]c3c2[C@@H](c2ccc(OCc4ccccc4F)cc2)CC(=O)O3)cc1 | -7% | 1.23
18 | Cc1cc(NC(=O)Cc2nnc3c(-c4nc(C5CC5)no4)cccn23)ccc1F | 2% | -0.28
19 | Cc1c(F)cccc1NC(=O)CN(C)CCCn1cccn1 | -12% | 2.32
20 | CC(=O)N1CCC([C@@H]2CN(Cc3ccc(C(F)(F)F)cc3)C[C@H]2CO)CC1 | -14% | 1.64
21 | O=C(Nc1ccccc1Cl)N1CC[C@@]2(CCCN(Cc3cccnc3)C2=O)C1 | -9% | 1.48

Row | SMILES | % Inhibition | Z score
22 | CC1CCC(O)C(C2CCCCN2C(=O)c2ccc(C(N)=O)cc2)C1 (stereo unspecified) | -2% | 0.21
23 | CCN(C)C1=Nc2ccccc2Oc2ccc(NC(=O)CC3CCCC3)cc21 | -15% | 1.86
24 | O=C(CCCc1ccccc1)N1CCN(C[C@H](O)C2CC2)CC1 | -2% | 0.24
25 | CC[C@@H](c1ccccn1)n1cnc2cccc(C(F)(F)F)c2c1=O | 14% | -1.97
26 | CNS(=O)(=O)CC(=O)NCC1(c2ccc(Cl)cc2)CCCC1 | -10% | 1.58
27 | Cc1cnccc1CC(=O)Nc1ncccc1OC(C)C | -13% | 1.48
28 | COc1ccc(CN2C(=O)CO[C@H]3CN(Cc4ccc(C)cc4)C[C@H]32)cc1 | -3% | 0.51
29 | Cc1cccc(CN(Cc2nc(C(=O)NCc3cccnc3)co2)C(C)C)c1 | -7% | 1.17
30 | COc1ccccc1NC(=O)c1ccc(N2C(=O)CCS2(=O)=O)cc1Cl | -5% | 0.68
31 | CNC(=O)c1cc2c(s1)CCN(C(=O)[C@@H]1CNCCO1)C2 | 3% | -0.58
32 | CCNC(=O)N1CCC(Cc2ccc(C(=O)N3CCOCC3)cc2)CC1 | -9% | 1.11
33 | Cc1ocnc1C(=O)N1CCC([C@@H](O)CCc2ccccc2)CC1 | -8% | 1.64
34 | Cc1nc(-c2cccc(C#N)c2)nn1CCS(C)(=O)=O | 0% | 0
35 | Cc1ccc(-c2cc(O)c3c(c2)CN(Cc2ncccc2C)CCO3)cc1 | -11% | 2.07
36 | CCC(CC)n1nc(C)cc1NC(=O)c1ncn[nH]1 | 11% | -1.45
37 | Cc1n[nH]c(C)c1S(=O)(=O)NCc1cnn2c1CCCC2 | -8% | 1.45
38 | COc1ccc(-c2nc(C)nc(N3CCCC3)c2N)cc1 | -8% | 0.97
39 | Cn1c(=O)sc2cc(NC(=O)Cc3ccc(F)cc3)ccc21 | -4% | 0.55
40 | CCCNC(=O)C1CCN(Cc2cn(C)nc2C2CCCC2)CC1 | 1% | -0.16
41 | CCc1ccc([C@H](C)NCc2cc(F)ccc2CS(C)(=O)=O)o1 | -1% | 0.1
42 | COC[C@H]1COCCN1C(=O)Cc1nnc(-c2ccccc2OC)o1 | -10% | 1.34

Row | SMILES | % Inhibition | Z score
43 | CCOc1ccc(-c2nc(-c3ccc4c(c3)ncn4CCC(=O)N3CCCCCC3)no2)cc1 | -26% | 5.26
44 | Cc1csc([C@@H]2CN(c3ncc(Cl)cc3Cl)CCO2)n1 | -11% | 1.43
45 | Cc1ccc(CC(=O)N2CCS(=O)(=O)c3c2c(C)nn3C)cc1C | 13% | -1.5
46 | CC(C)n1ncc(C(=O)N[C@@H](C)C(C)(C)C)c1C(F)(F)F | 1% | -0.11
47 | O=C(c1cccnc1)N1C[C@H]2CC[C@@H](C1)N(C(=O)N1CCCC1)C2 | -2% | 0.3
48 | Cc1c(C)n2c3c(c(NC(=O)c4ccccc4)ccc13)CCC2 | 0% | 0.02
49 | CNC(=O)[C@H]1CCCN(c2nc(-c3cccnc3)nc(C)c2C)C1 | -6% | 1.22
50 | O=S1(=O)c2ccccc2N(Cc2ccccc2Cl)c2ccccc21 | -7% | 0.75
51 | Cc1cc(F)ccc1S(=O)(=O)N1CC(Oc2cc(C)n(C)c(=O)c2)C1 | -11% | 1.21
52 | CC(=O)N[C@@H](CC(C)C)C(=O)ON1C(=O)CCC1=O | 5% | -0.73
53 | CC(=O)Nc1ccc2nc(N(C(=O)c3cc(Cl)ccc3Cl)C(=O)c3cc(Cl)ccc3Cl)sc2c1 | 7% | -1.07
54 | Cc1cc(C(=O)Nc2sc3c(c2C(N)=O)CCC3)on1 | -18% | 3.46
55 | CN(C(=O)c1ccc(N(Cc2ccc(F)cc2)S(C)(=O)=O)cc1)c1ccccc1 | -44% | 5.13
56 | Cc1cc(-c2ccncc2)nn1CCNC(=O)Nc1ccccc1 | 19% | -2.5
57 | Cc1ncoc1CNC(=O)N[C@@H]1c2ccccc2OC[C@@H]1CO | 6% | -1.1
58 | C=CCC(O)(CC=C)CNS(=O)(=O)N1CCCC1 | -13% | 1.76
59 | Cc1cc(Cl)ccc1C(=O)N1C[C@H]2CCC[C@@H](C2)C1 | -11% | 2.08
60 | CN(C)CC1(CO)CCN(C(=O)C2CCCCCC2)CC1 | -6% | 1.05
61 | Cc1ccc2[nH]c([C@H](C)NC(=O)c3cc(COc4ccccc4)on3)nc2c1 | 0% | 0.02
62 | CC1(C)C[C@@H](NC(=O)COc2ccc(CO)cc2)CCO1 | 31% | -4.49
63 | C=CCN(CC=C)C(=O)CN1CCc2nc[nH]c2C12CCCCC2 | 0% | 0.03

Row | SMILES | % Inhibition | Z score
64 | CCCS(=O)(=O)Nc1ccc2c(c1)C(=O)N(C)c1ccccc1O2 | -3% | 0.35
65 | CN(CC1(C)CCOCC1)S(=O)(=O)c1cccs1 | 1% | -0.22
66 | Cc1cc2nc3n(c(=O)c2n1CC(=O)Nc1cc(F)ccc1F)CCCC3 | -13% | 1.51
67 | COCC(NC(=O)c1cccc2[nH]c(=O)[nH]c12)C1CCCO1 (stereo unspecified) | 7% | -1.06
68 | C#Cc1cccc(N(C)Cc2csc(N(CCOC)C(C)=O)n2)c1 | -20% | 1.83
69 | CNc1cc(C)nc(-c2cnn(CC(=O)Nc3nn(C)c4ccccc34)c2)n1 | 20% | -2.54
70 | Cc1cc(CN(C)C(=O)c2cc(NC(=O)c3ccccc3)cc3ncn(C4CCCC4)c23)n[nH]1 | 13% | -1.56
71 | Cc1nc2c(C(=O)N3CC[S+]([O-])CC(C)C3)cccc2o1 (stereo unspecified) | -18% | 1.87
72 | Cc1cc2c(N(C)Cc3cc(C)on3)nccn2n1 | 33% | -3.76
73 | CCN1CCN(c2cc3c(cc2S(=O)(=O)N2CCCCCC2)C(=O)Nc2ccccc2O3)CC1 | 8% | -1.09
74 | NC(=O)[C@@H]1CC[C@H](NC(=O)C2(C(F)(F)F)CCC2)C1 | -13% | 1.68
75 | CCN1C(=O)NC(=O)C12CCN(c1nnc(C3CC3)o1)CC2 | -6% | 1.04
76 | O=C(C[C@@]1(O)C(=O)N(CN2CCOCC2)c2ccccc21)c1ccc2c(c1)OCCO2 | -6% | 0.7
77 | CN(C(=O)c1csc(-c2cc3ccccc3o2)n1)C1(C#N)CCC1 | 10% | -1.51
78 | Cc1nn(C)c(C)c1CCN/C(=N\c1cccc(F)c1)NC(=O)c1ccc(F)cc1 | -10% | 1.86
79 | CNC(=O)NC(=O)[C@H](C)Nc1cccc(COCC2CC2)c1 | 3% | -0.52
80 | Cc1ccsc1CN1CCC(C(=O)N2CCCC2)CC1 | -17% | 2.23
81 | Cc1ccc(NS(=O)(=O)c2cnnn2C)c(C(=O)C(F)(F)F)c1 | -5% | 0.6
82 | O=C1O[C@H]2CN(c3ccnc4cc(Cl)ccc34)C[C@H]2N1C1CCCC1 | -7% | 1.37
83 | CCC[C@H]1CN(C(=O)c2cc(C(C)C)n[nH]2)C[C@@H]1N | -5% | 0.68
